Structures can show the parent of a compound that is named as a salt. ± gives the standard error. Among all 1,300 compounds or so, about 75 (6%) showed an effect of 50% or more. This is one part of the list.
Tested on: Trichoderma virens ATCC 9645
Assay: growth yield (OD600) relative to untreated control; higher = less growth inhibition
Conditions: compound concentration: 100 uM
In short: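 For each 96-well plate, 100 μl aliquots were prepared with Trichoderma virens ATCC 9645 spores suspended at 15,000 spores ml^−1 in potato dextrose broth. The spores had been harvested from potato dextrose agar plates after 7 days. Library compounds were present at 100 μM final, some wells also receiving a biocide at 200 ng ml^−1, and plates were grown at 30 °C with OD600 read on a BioTek EL800 at 40 h and 72 h. Reported growth, relative to the control lacking both agents, is the mean of duplicate screens.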

Row | Structure (SMILES) | growth yield (40 h) [%] | growth yield (72 h) [%]
1 | OCc1cc(C(O)CNCCCCCCOCCCCc2ccccc2)ccc1O (stereo not drawn) [Salmeterol] | 63.2 ± 2.9 | 96.6 ± 8.1
2 | Cc1nc2n(c(=O)c1CCN1CCC(c3noc4cc(F)ccc34)CC1)CCCC2 [Risperidone] | 110 ± 5.2 | 104.9 ± 0.84
3 | CNCCC(Oc1ccc(C(F)(F)F)cc1)c1ccccc1 (stereo not drawn) [Fluoxetine hydrochloride] | 107 ± 4.8 | 110 ± 4.1
4 | C[C@@H](CN1CC(=O)NC(=O)C1)N1CC(=O)NC(=O)C1 [Dexrazoxane hydrochloride] | 101 ± 2.1 | 102.8 ± 0.21
5 | CC(=O)Nc1ccc(CC(=O)O)cc1 [Actarit] | 106 ± 5.4 | 102 ± 3.4
6 | CCN1CC(CCN2CCOCC2)C(c2ccccc2)(c2ccccc2)C1=O (stereo not drawn) [Doxapram hydrochloride] | 103 ± 3 | 102 ± 3.6
7 | CCCCNC(=O)NS(=O)(=O)c1ccc(C)cc1 [Tolbutamide] | 106.4 ± 0.32 | 104.2 ± 0.84
8 | O=C(O)c1cc(-c2ccc(F)cc2F)ccc1O [Diflunisal] | 78.8 ± 1.9 | 77.189 ± 1e-14
9 | CCOC(=O)OC(C)OC1=C(C(=O)Nc2ccccn2)N(C)S(=O)(=O)c2ccccc21 (stereo not drawn) [Ampiroxicam] | 97.4 ± 2.1 | 98.48 ± 0.32
10 | CC(=O)[C@H]1CC[C@H]2[C@@H]3C[C@H](C)C4=CC(=O)CC[C@]4(C)[C@H]3[C@@H](O)C[C@]12C [Medrysone] | 92.9 ± 6.2 | 91.8 ± 5.6
11 | O=S(=O)(O)CCS [Mesna] | 100 | 99.21 ± 0.42
12 | CCn1cc(C(=O)O)c(=O)c2cnc(N3CCCC3)nc21 [Piromidic acid] | 90.5 ± 5.7 | 92.1 ± 4
13 | CC(C)(C)NC[C@H](O)c1ccc(O)c(CO)c1 [Levalbuterol hydrochloride] | 100 ± 1.6 | 97.64 ± 0.73
14 | COc1ccc(-c2cc(=O)c3c(O)cc(O[C@@H]4O[C@H](CO[C@@H]5O[C@@H](C)[C@H](O)[C@@H](O)[C@H]5O)[C@@H](O)[C@H](O)[C@H]4O)cc3o2)cc1O [Diosmin] | 99.91 ± 0.16 | 103.8 ± 0.63
15 | CCCCCCCN(CC)CCCC(O)c1ccc(NS(C)(=O)=O)cc1 (stereo not drawn) [Ibutilide fumarate] | 100 ± 2.9 | 101 ± 2.5
16 | c1ccc2[nH]c(-c3cscn3)nc2c1 [Tiabendazole] | 1.43 ± 1.4 | 1.26 ± 1.3
17 | CC1CS(=O)(=O)CCN1/N=C/c1ccc([N+](=O)[O-])o1 (stereo not drawn) [Nifurtimox] | 87.5 ± 1.4 | 84.22 ± 0.52
18 | CN1CC2c3ccccc3Oc3ccc(Cl)cc3C2C1 (stereo not drawn) [Asenapine maleate] | 100 ± 1.3 | 106 ± 1.3
19 | COc1cc(C(=O)NC2CCCNC2)cc(OC)c1OC (stereo not drawn) [Troxipide] | 111 ± 4.5 | 104 ± 3.8
20 | C[C@]12CC[C@@H]3c4ccc(O)cc4CC[C@H]3[C@@H]1CCC2=O [Estrone] | 86.1 ± 1.9 | 86.9 ± 1.8
21 | CN(C)[C@@H]1C(O)=C(C(N)=O)C(=O)[C@@]2(O)C(O)=C3C(=O)c4c(O)ccc(Cl)c4[C@@](C)(O)[C@H]3C[C@@H]12 [Chlortetracycline hydrochloride] | 90.54 ± 0.32 | 90.93 ± 0.32
22 | CC(=O)N(CC(C)C(=O)O)c1c(I)cc(I)c(N)c1I (stereo not drawn) [Iocetamic acid] | 107 ± 1.6 | 104 ± 1.1
23 | COc1cnc(NS(=O)(=O)c2ccc(N)cc2)nc1 [Sulfameter] | 104 ± 1.3 | 100 ± 0.84

Row | Structure (SMILES) | growth yield (40 h) [%] | growth yield (72 h) [%]
24 | O=C(O)CCC(=O)Nc1ccc(S(=O)(=O)Nc2nccs2)cc1 [Succinylsulfathiazole] | 94.7 ± 3.5 | 93.9 ± 2.6
25 | Cc1cccc(CN2CCN(C(c3ccccc3)c3ccc(Cl)cc3)CC2)c1 (stereo not drawn) [Meclozine dihydrochloride] | 68.3 | 115
26 | COc1ccccc1O [Guaiacol] | 103.9 ± 0.95 | 102.7 ± 0.32
27 | CNCCC(Oc1ccccc1OC)c1ccccc1 (stereo not drawn) [Nisoxetine hydrochloride] | 99.6 ± 2.4 | 97 ± 3.5
28 | CCCCC(C)(O)C/C=C/[C@H]1[C@H](O)CC(=O)[C@@H]1CCCCCCC(=O)OC (mixture of isomers) [Misoprostol] | 105 ± 1.3 | 109 ± 4.1
29 | CCOC(=O)C1=C[C@]2(CC)CCCN3CCc4c(n1c1ccccc41)[C@@H]32 [Vinpocetine] | 99.8 ± 1.9 | 99.5 ± 1.6
30 | OCCOCCN1CCN(C(c2ccccc2)c2ccc(Cl)cc2)CC1 (stereo not drawn) [Hydroxyzine dihydrochloride] | 97.4 ± 1.1 | 102 ± 2.1
31 | C=CC1=C(C(=O)O)N2C(=O)[C@@H](NC(=O)/C(=N\OCC(=O)O)c3csc(N)n3)[C@H]2SC1 [Cefixime] | 103 ± 8.4 | 104 ± 7.9
32 | Cc1cc(-n2c(=O)[nH]c(=O)n(C)c2=O)ccc1Oc1ccc(SC(F)(F)F)cc1 [Toltrazuril] | 112 ± 2.2 | 104 ± 2.5
33 | Cc1ccccc1N1C(=O)c2cc(S(N)(=O)=O)c(Cl)cc2NC1C (stereo not drawn) [Metolazone] | 99.91 ± 0.16 | 100 ± 1.5
34 | COc1ccc2[nH]c([S+]([O-])Cc3ncc(C)c(OC)c3C)nc2c1 (stereo not drawn) [Omeprazole] | 89.1 ± 4.6 | 94.7 ± 5.1
35 | CC(=O)Nc1ccc(O)cc1 [Acetaminophen] | 101 ± 6.3 | 98.7 ± 2.6
36 | CO/N=C(\C(=O)N[C@@H]1C(=O)N2C(C(=O)O)=C(C[N+]3(C)CCCC3)CS[C@H]12)c1csc(N)n1 [Cefepime hydrochloride] | 101 ± 4 | 92.3 ± 8
37 | CCOC(=O)[C@H](CCc1ccccc1)N[C@@H](C)C(=O)N1CCC[C@H]1C(=O)O [Enalapril maleate] | 98.5 ± 1.3 | 98.17 ± 0.63
38 | CC1=C(CC(=O)O)c2cc(F)ccc2/C1=C\c1ccc([S+](C)[O-])cc1 (stereo not drawn) [Sulindac] | 90.1 ± 1.1 | 86.31 ± 0.73
39 | CC(Oc1c(Cl)cccc1Cl)C1=NCCN1 (stereo not drawn) [Lofexidine] | 104 ± 1.3 | 105 ± 1.1
40 | C[C@]12CC[C@@H]3c4ccc(O)cc4CC[C@H]3[C@@H]1C[C@@H](O)[C@@H]2O [Estriol] | 103.4 ± 0.48 | 99.63 ± 0.42
41 | CN(C)CCCO[C@@H]1[C@H]2OC(C)(C)O[C@H]2O[C@@H]1[C@H](O)CO [Amiprilose hydrochloride] | 100.5 ± 0.79 | 101.6 ± 0.73
42 | Cc1noc(NS(=O)(=O)c2ccc(N)cc2)c1C [Sulfisoxazole] | 87.4 | 96.2 ± 1.8
43 | CCc1cccc2c3c([nH]c12)C(CC)(CC(=O)O)OCC3 (stereo not drawn) [Etodolac] | 94.8 ± 2.4 | 89.8 ± 2.7
44 | CC[N+](CC)(CC)CCC(O)(c1ccccc1)C1CCCCC1 (stereo not drawn) [Tridihexethyl chloride] | 103 ± 6.3 | 101 ± 4.5
45 | CN(C)[C@@H]1C(O)=C(C(N)=O)C(=O)[C@@]2(O)C(O)=C3C(=O)c4c(O)ccc(Cl)c4[C@@H](O)[C@H]3C[C@@H]12 [Demeclocycline hydrochloride] | 82.6 ± 3.2 | 85.1 ± 5.6
46 | O=C1c2ccccc2S(=O)(=O)N1CCCCN1CCN(c2ncccn2)CC1 [Ipsapirone] | 108 ± 3.6 | 108 ± 4

Row | Structure (SMILES) | growth yield (40 h) [%] | growth yield (72 h) [%]
47 | Cn1c([N+](=O)[O-])cnc1COC(N)=O [Ronidazole] | 101 ± 1.1 | 98.06 ± 0.94
48 | COc1ccc(C(=O)NCc2ccc(OCCN(C)C)cc2)cc1OC [Itopride] | 105 ± 5.7 | 105 ± 3.7
49 | N[C@@H](C(=O)N[C@@H]1C(=O)N2C(C(=O)O)=C(Cl)CS[C@H]12)c1ccccc1 [Cefaclor hydrate] | 96.1 ± 4.6 | 96.9 ± 4.2
50 | CC(Oc1ccccc1)C(=O)N[C@@H]1C(=O)N2[C@@H]1SC(C)(C)[C@@H]2C(=O)O (stereo partly drawn) [Phenethicillin potassium salt] | 101 ± 4.1 | 95.1 ± 4.1
51 | CN(C)CCOC(=O)COc1ccc(Cl)cc1 [Meclofenoxate hydrochloride] | 95.1 ± 2.1 | 92.1 ± 3.6
52 | Brc1c(NC2=NCCN2)ccc2nccnc12 [Brimonidine L-Tartrate] | 92.6 ± 2.4 | 90.9 ± 1.4
53 | CCCc1nc(C(C)(C)O)c(C(=O)O)n1Cc1ccc(-c2ccccc2-c2nnn[nH]2)cc1 [Olmesartan] | 100 ± 3.2 | 99.8 ± 2.9
54 | N=C(N)N/N=C/c1c(Cl)cccc1Cl [Guanabenz acetate] | 91.5 ± 1.9 | 90.7 ± 3.2
55 | OC(CCN1CCCCC1)(c1ccccc1)C1CCCCC1 (stereo not drawn) [Trihexyphenidyl-D,L Hydrochloride] | 92.1 ± 3.5 | 90.51 ± 0.1
56 | CN(CCOc1ccc(CC2SC(=O)NC2=O)cc1)c1ccccn1 (stereo not drawn) [Rosiglitazone Hydrochloride] | 99.6 ± 8.1 | 88.4 ± 9.5
57 | CCC(=O)OCC(=O)[C@@]1(OC(=O)CC)[C@H](C)C[C@H]2[C@H]3[C@H]([C@@H](O)C[C@@]21C)[C@@]1(C)C=CC(=O)C=C1C[C@H]3Cl [Alclometasone dipropionate] | 101 ± 4 | 97.7 ± 1.7
58 | Nc1cc(-c2ccncc2)c[nH]c1=O [Amrinone] | 87 ± 1.6 | 83.1
59 | COc1ccc(C[C@@H]2c3cc(OC)c(OC)cc3CC[N@+]2(C)CCC(=O)OCCCCCOC(=O)CC[N@@+]2(C)CCc3cc(OC)c(OC)cc3[C@H]2Cc2ccc(OC)c(OC)c2)cc1OC [Cisatracurium besylate] | 95 ± 1.3 | 94 ± 3.4
60 | CC(N)C12CC3CC(CC(C3)C1)C2 (stereo not drawn) [Rimantadine Hydrochloride] | 102 ± 1.6 | 103
61 | COC(=O)Nc1nc2cc(C(=O)c3ccc(F)cc3)ccc2[nH]1 [Flubendazol] | 102 ± 2.7 | 102.6 ± 0.63
62 | O=C(O[C@@H]1C[C@@H]2C[C@H]3C[C@H](C1)N2CC3=O)c1c[nH]c2ccccc12 [Dolasetron mesilate] | 106 ± 3.3 | 104 ± 1.9
63 | CC(C)(C)NC(=O)[C@@H]1CN(Cc2cccnc2)CCN1C[C@@H](O)C[C@@H](Cc1ccccc1)C(=O)N[C@H]1c2ccccc2C[C@H]1O [Indinavir sulfate] | 94.4 ± 2.5 | 95.5 ± 2.6
64 | CC(C)(C)NCC(O)c1ccc(O)c(CO)c1 (stereo not drawn) [Salbutamol] | 105 ± 1.6 | 104 ± 2.5
65 | Cc1c(OCC(F)(F)F)ccnc1C[S+]([O-])c1nc2ccccc2[nH]1 (stereo not drawn) [Lansoprazole] | 78 ± 2.4 | 87 ± 1.7
66 | Cn1c(=O)c2c(ncn2C)n(C)c1=O [Caffeine] | 104 ± 1.8 | 99.9 ± 1.1
67 | CN(C)CCCC1(c2ccc(F)cc2)OCc2cc(C#N)ccc21 (stereo not drawn) [Citalopram Hydrobromide] | 90.54 ± 0.64 | 93.1 ± 2.1
68 | CCCC(CCC)C(=O)O [Valproic acid] | 88.63 ± 0.32 | 87.9 ± 1.7
69 | Cc1onc(-c2ccccc2)c1C(=O)N[C@@H]1C(=O)N2[C@@H]1SC(C)(C)[C@@H]2C(=O)O [Oxacillin sodium] | 111 ± 1.6 | 105 ± 1.4

From the supplement of paper PMC8007513
